Test results from PubChem BioAssay AID445 (National Center for Advancing Translational Sciences (NCATS), 2006).
Screen size: about 110,000 compounds; about 40 (0.04%) were called active. The inconclusive results got no clear call from the source; some entries with a clear call stand among them for comparison. Calls follow the shape of the dose curve; as a rule, active = well fitted curve in the direction sought with a large enough effect in the signal ratio (not every such curve was filed as active); inconclusive = small, poorly fitted or top-dose-only effect, or a change in a side signal; inactive = flat fitted curve, though single readings scatter; the % refers to the signal ratio. Potencies beside an inconclusive call are fits to weak or partial responses and may not hold up.

Test: IkB Signaling;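 as to IkBa stabilization activation: 0% = basal untreated cells and 100% = reference inhibitor full response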
Conditions: ABC-DLBCL IkBa-CBG/CBR dual luciferase ratio (green luciferase fused to IkBa over red control in OCI-Ly3 lymphoma cells), 4 h; IkBa stabilization activation: at 57.1 µM (top of the series), scaled: untreated 0%, proteasome inhibitor 100% unless noted
In short: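 Luminescence ratio of IκBα-fused green versus native red beetle luciferase in OCI-Ly3 cells, 4 h post-doxycycline with compound; red signal alone, scaled from basal (0%) to zero light (-100%), flagged nonspecific or cytotoxic effects.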
Potency is read from the fitted curve at half-maximal effect.

| Structure (SMILES) | IkBa stabilization activation | Potency |
| --- | --- | --- |
| CCc1ccc(NC(=O)CN2C(=O)CCSc3ccccc32)cc1 | inactive | – |
| CCc1ccc(C(=O)COC(=O)CNC(=O)c2ccco2)cc1 | inactive | – |
| Cc1ccc(CNC(=O)C2CCCN(S(=O)(=O)c3cn(C)cn3)C2)cc1 (stereo not given) | inconclusive: -0.291% [signal inhibitor] | – |
| COc1cccc(/C=N/n2c(C)nc3ccccc32)c1OC | inconclusive: -5.05% [signal inhibitor] | – |
| Cc1cc(=O)n(CC(=O)NCc2ccc(OC(C)C)cc2)c2c1c(C)nn2-c1cccc(F)c1 | inconclusive: 0.623% [signal inhibitor] | – |
| CSc1ccc(CNc2ccccn2)cc1 | inactive | – |
| c1ccc(-c2cnc(CSc3ncnc4sccc34)o2)cc1 | inconclusive: 6.91% [signal inhibitor] | – |
| O=C(COC(=O)c1cccc(NC(=O)c2ccco2)c1)c1ccc(Br)cc1 | – | inconclusive: 3.98 µM [signal inhibitor, partial curve] |
| Cc1cc(C)cc(NS(=O)(=O)c2ccc(N3CCCCS3(=O)=O)cc2)c1 | inconclusive: 0.838% [signal inhibitor] | – |
| C=COCCn1c(-c2nonc2N)nc2ccccc21 | inactive | – |
| Cc1cccc2sc(NC(=O)Cn3cccc3)nc12 | inactive | – |
| Cc1ccc(NC(=O)CSc2nc(=O)n(Cc3ccccn3)c3c2CCC3)cc1F | inconclusive: -1.01% [signal inhibitor] | – |
| COc1cc(C(=O)NCc2ccc3c(c2)CCN3C(=O)c2ccc(Cl)cc2)cc(OC)c1OC | inconclusive: 1.62% [signal inhibitor] | – |
| O=C(CC1OC(=O)c2ccccc21)NC1CCCCC1 (stereo not given) | – | inconclusive: 15.8 µM [signal inhibitor, partial curve] |
| O=C(Nc1ccccc1Cl)N1CCC2(CC1)Oc1ccccc1C(=O)N2Cc1ccc(F)cc1 | inconclusive: 1.22% [signal inhibitor] | – |
| COc1cc(NC(=O)c2cc(-c3cccc(O)c3)on2)cc(OC)c1OC | inactive | – |
| CCOC(=O)c1ccc(N2C(=O)c3[nH]nc(-c4ccc(OC)cc4)c3C2c2cccc(O)c2)cc1 (stereo not given) | inconclusive: -4.42% [signal inhibitor] | – |
| c1ccc(CNc2ncnc3ccccc23)cc1 | inconclusive: 0.708% [signal inhibitor] | – |
| Cc1ccc(C2NC(=O)c3n[nH]c(-c4cccs4)c32)cc1 (stereo not given) | inconclusive: 1.96% [signal inhibitor] | – |
| N=c1n(Cc2ccccc2)c2ccccc2n1CC(O)COc1ccccc1 (stereo not given) | inactive | – |
| Cc1ccc(Cl)cc1N1CCN(C(=O)Cn2nc(C)c3sc4ccccc4c3c2=O)CC1 | inconclusive: 2.65% [signal inhibitor] | – |
| O=C(Nc1cccc(C(=O)OCc2cc(=O)n3c4c(sc3n2)CCCC4)c1)c1cccc(F)c1 | inconclusive: 18.1% [signal inhibitor] | – |
| COc1ccc(NC(=O)CCS(=O)(=O)c2nc(-c3ccc4c(c3)OCO4)cc(C(F)(F)F)n2)cc1OC | – | inconclusive: 6.31 µM [signal inhibitor] |
| CCc1ccc(S(=O)(=O)Nc2ccc3c(c2)sc(=O)n3C)cc1 | inconclusive: 6.85% [signal inhibitor] | – |

| Structure (SMILES) | IkBa stabilization activation | Potency |
| --- | --- | --- |
| CC1(C)[C@@H]2CC[C@@]1(CS(=O)(=O)Nc1ccccc1)C(=O)C2 | inactive: 1.41% [at 11.4 µM, scaled: untreated 0%, proteasome inhibitor 100%] | – |
| Cc1cccc(Cn2c(=O)n(-c3cc(C)cc(C)c3)c(=O)c3oc4ccccc4c32)c1 | inconclusive: 2.38% [signal inhibitor] | – |
| Cc1cc(C)c2c(n1)nn1c(C)c(CCC(=O)Nc3cccc(C)c3C)c(C)nc21 | inactive | – |
| O=c1c2ccccc2nc(SCc2ccccc2)n1Cc1ccco1 | inconclusive: 9.34% [signal inhibitor] | – |
| CCC(=O)N1CCCc2cc(S(=O)(=O)N3CCCc4ccccc43)ccc21 | inconclusive: 2.28% [signal inhibitor] | – |
| CCc1nn(CC(=O)NCc2ccccc2)c(=O)c2cccn12 | inactive | – |
| Cc1cccc(NC(=O)CSc2nc(-c3cccs3)nc3cc(=O)[nH]n23)c1 | inconclusive: 1.88% [signal inhibitor] | – |
| CCN(C(=O)c1ccco1)c1nc(CC(=O)Nc2ccc(Cl)cc2)cs1 | inconclusive: 3.95% [signal inhibitor] | – |
| Cc1cccc(-c2nc3c4ccccc4nc(N4CCN(c5cccc(Cl)c5)CC4)n3n2)c1 | inactive | – |
| COc1ccc(-c2c3c(nc4sc(C(=O)Nc5cccc(OC)c5)c(N)c24)CC(C)(C)CC3=O)cc1 | inconclusive: 4.61% [signal inhibitor] | – |
| O=C(c1cccs1)N1CCn2c1nc1ccccc12 | inactive | – |
| CCc1ccccc1NC(=O)Cn1c(=O)n(CCc2ccccc2)c(=O)c2sc3ccccc3c21 | inactive | – |
| Cc1noc(C)c1CN1C(=O)NC(Cc2ccccc2)(Cc2ccccc2)C1=O | inactive | – |
| COc1ccc(OC)c(S(=O)(=O)N2CCC(C(=O)Nc3ccc(C)c(C)c3)CC2)c1 | inconclusive: 3.34% [signal inhibitor] | – |
| Cc1cc(C(=O)N2CCN(c3ccccc3F)CC2)c2c(C)nn(-c3ccccc3)c2n1 | inconclusive: -2.8% [signal inhibitor] | – |
| CCOC(=O)CCc1c(C)c2ccc(OCC(=O)N(CC)CC)c(C)c2oc1=O | inconclusive: 1.12% [signal inhibitor] | – |
| Cc1cc(C)n2nc(CNS(=O)(=O)c3cccc(Cl)c3)nc2n1 | inactive | – |
| CCCCN(C)C(=O)CSc1c2c(nc3ccc(Cl)cc13)CCCC2 | inconclusive: 16.9% [signal inhibitor] | – |
| Cn1c(=O)c(=O)n(C)c2cc(NS(=O)(=O)c3ccc(Br)cc3)c(Cl)cc21 | inconclusive: -3.71% [signal inhibitor] | – |
| Cc1nc2ccccc2c(=O)n1NS(C)(=O)=O | inactive | – |
| c1ccc(Nc2nc3ccccc3[nH]2)nc1 | – | inconclusive: 25.1 µM [signal inhibitor, partial curve] |
| CCOC(=O)C1=C(CNCc2ccccc2Cl)NC(=O)NC1c1ccc2c(c1)OCO2 (stereo not given) | inconclusive: 2.94% [signal inhibitor] | – |
| CCCCNC(=O)CSc1nc2cc3c(cc2c(=O)n1Cc1ccc(C(=O)NCCc2ccc(OC)c(OC)c2)cc1)OCO3 | inconclusive: 12.5% [signal activator] | – |
| CCOC(=O)c1sc(NC(=O)CSc2nnc(-c3ccco3)n2CC)c(C(=O)OCC)c1C | inconclusive: 5.76% [signal inhibitor] | – |

| Structure (SMILES) | IkBa stabilization activation | Potency |
| --- | --- | --- |
| O=C(CCC(=O)N1Cc2ccccc2Oc2ncccc21)NCc1cccc(Cl)c1 | inconclusive: -2.25% [signal inhibitor] | – |
| CC(Oc1ccccc1)C(=O)Nc1ccc(C(=O)OCc2cc(=O)n3nc(C4CC4)sc3n2)cc1 (stereo not given) | inconclusive: 7.18% [signal inhibitor] | – |
| COc1ccc(-c2cn3c(n2)sc2cc(C(=O)Nc4ccc(C)c(Cl)c4)ccc23)cc1 | inconclusive: 3.62% [signal inhibitor] | – |
| CCOC(=O)c1[nH]c2c(c1Cc1ccccc1C)C(=O)CC(c1ccccc1)C2 (stereo not given) | inconclusive: -2.2% [signal inhibitor] | – |
| CCOc1ccc(-c2nnc(SCC(=O)Nc3ccc(C)cc3C)o2)cc1 | inactive | – |
| CC1=C(c2ccc(C(C)C)cc2)S(=O)(=O)N=C1N1CCC(C(=O)Nc2ccc(C)cc2)CC1 | inactive | – |
| CCc1ccc(NC(=O)c2cnn(-c3c(C)cccc3C)c2C2CCN(C(=O)OC(C)(C)C)CC2)cc1 | inconclusive: 0.873% [signal inhibitor] | – |
| COc1cc(C(=O)OCn2nnc3ccccc3c2=O)cc(OC)c1OC | inactive | – |
| CC1(C)N=C(SCc2ccc(Cl)cc2)c2ccccc2N1 | inconclusive: 1.17% [signal inhibitor] | – |
| Cc1cc2oc(=O)cc(CN3CCN(Cc4ccc5c(c4)OCO5)CC3)c2cc1C | inactive | – |
| Cc1ccc(S(=O)(=O)N2CCN(Cc3cc(=O)n4nc(-c5ccccc5Cl)sc4n3)CC2)cc1 | inconclusive: 1.01% [signal inhibitor] | – |
| CCOC(=O)N1CCN(C(=O)CSCC(=O)Nc2nc(-c3ccc(OC)cc3)cs2)CC1 | inconclusive: 1.4% [signal inhibitor] | – |
| COc1cccc(C2C(C(=O)Nc3ccccc3OC)=C(C)Nc3nc(-c4ccco4)nn32)c1 (stereo not given) | inconclusive: 7.64% [signal inhibitor] | – |
| Cc1ccc(NC(=O)C2CCN(S(=O)(=O)c3cccc4nonc34)CC2)nc1 | inconclusive: 1.83% [signal inhibitor] | – |
| CCC(Sc1nnc2c3ccccc3n(CC)c2n1)C(=O)Nc1ccc(NC(C)=O)cc1 (stereo not given) | inconclusive: -2.05% [signal inhibitor] | – |
| Cc1ccccc1-c1nc(CS(=O)(=O)CC(=O)NCCCc2ccccc2)c(C)o1 | inactive | – |
| COc1ccc(-c2noc(CSc3nc4ccc(C)cc4[nH]3)n2)cc1 | inconclusive: 6.03% [signal inhibitor] | – |
| O=C(Cn1nc(Cc2cccnc2)c2ccccc2c1=O)Nc1ccc(F)c(Cl)c1 | inconclusive: 2.92% [signal inhibitor] | – |
| COc1cccc(CNC(=O)c2sc3ncccc3c2-n2c(C)ccc2C)c1OC | inconclusive: -0.813% [signal inhibitor] | – |
| COc1ccc(C(=O)NCC(c2ccc(Cl)cc2)N2CCCCC2)cc1 (stereo not given) | inconclusive: 0.409% [signal inhibitor] | – |
| CCC(C(=O)Nc1cc(C(F)(F)F)ccc1Cl)n1nc(C)c2sc3ccccc3c2c1=O (stereo not given) | inconclusive: 6.42% [signal inhibitor] | – |
| COc1ccccc1CNC(=O)Cn1nc(C)n2cccc2c1=O | inconclusive: 2.21% [signal inhibitor] | – |
